In EPA's CvTdb concentration-time database:
This continues a long series; more values of the same kind are listed elsewhere.

How the values were obtained:
Experiment in all cases: concentration in plasma after dosing
Rat [1] = conditions: dosed: Isoeugenol, 140 mg/kg, oral, Male, F344/N
Rat [2] = conditions: dosed: Isoeugenol, 140 mg/kg, oral, Male, F344/N; remark: listed apart in the source
Rat [3] = conditions: dosed: Isoeugenol, 17 mg/kg, iv, Female, F344/N
Rat [4] = conditions: dosed: Isoeugenol, 140 mg/kg, oral, Female, F344/N
Rat [5] = conditions: dosed: Isoeugenol, 17 mg/kg, iv, Male, F344/N
Rat [6] = conditions: dosed: Isoeugenol, 140 mg/kg, oral, Female, F344/N; remark: listed apart in the source
Rat [7] = conditions: dosed: Isoeugenol, 70 mg/kg, oral, Female, F344/N
Rat [8] = conditions: dosed: Isoeugenol, 140 mg/kg, oral, Female, F344/N; remark: listed apart in the source
Rat [9] = conditions: dosed: Isoeugenol, 140 mg/kg, oral, Female, F344/N; remark: listed apart in the source
Rat [10] = conditions: dosed: Isoeugenol, 70 mg/kg, oral, Female, F344/N; remark: listed apart in the source
Rat [11] = conditions: dosed: Isoeugenol, 140 mg/kg, oral, Female, F344/N; remark: listed apart in the source
Rat [12] = conditions: dosed: Isoeugenol, 140 mg/kg, oral, Male, F344/N; remark: listed apart in the source
Rat [13] = conditions: dosed: Isoeugenol, 17 mg/kg, iv, Male, F344/N; remark: listed apart in the source
Rat [14] = conditions: dosed: Isoeugenol, 140 mg/kg, oral, Female, F344/N; remark: listed apart in the source
Rat [15] = conditions: dosed: Isoeugenol, 70 mg/kg, oral, Male, F344/N
Rat [16] = conditions: dosed: Isoeugenol, 140 mg/kg, oral, Female, F344/N; remark: listed apart in the source
Rat [17] = conditions: 3 h; dosed: Perfluorohexane-1-sulphonic acid – potassium salt; 16 mg/kg; oral; Female; F344
Rat [18] = conditions: dosed: Perfluorohexane-1-sulphonic acid – potassium salt, 4 mg/kg, Female, F344
Rat [19] = conditions: 1200 h; dosed: Perfluorohexane-1-sulphonic acid – potassium salt; 16 mg/kg; oral; Male; Harlan Sprague Dawley
Rat [20] = conditions: dosed: Perfluorohexane-1-sulphonic acid – potassium salt, 4 mg/kg, Female, F344; remark: listed apart in the source
Rat [21] = conditions: dosed: Perfluorohexane-1-sulphonic acid – potassium salt, 4 mg/kg, Female, F344; remark: listed apart in the source
Rat [22] = conditions: dosed: Perfluorohexane-1-sulphonic acid – potassium salt, 16 mg/kg, oral, Female, Harlan Sprague Dawley
Rat [23] = conditions: 192 h; dosed: Perfluorohexane-1-sulphonic acid – potassium salt; 16 mg/kg; oral; Female; Harlan Sprague Dawley
Rat [24] = conditions: 9 h; dosed: Fluorotelomer alcohol 8+2; 80 mg/kg; oral; Female; Harlan Sprague Dawley
Rat [25] = conditions: 9 h; dosed: Fluorotelomer alcohol 8+2; 160 mg/kg; oral; Female; Harlan Sprague Dawley
Rat [26] = conditions: 1 h; dosed: Fluorotelomer alcohol 8+2; 80 mg/kg; oral; Female; Harlan Sprague Dawley
Rat [27] = conditions: dosed: Fluorotelomer alcohol 8+2, 24 mg/kg, oral, Male, Harlan Sprague Dawley
Rat [28] = conditions: 6 h; dosed: Fluorotelomer alcohol 8+2; 80 mg/kg; oral; Female; Harlan Sprague Dawley
Rat [29] = conditions: dosed: Fluorotelomer alcohol 8+2, 160 mg/kg, oral, Female, Harlan Sprague Dawley
Rat [30] = conditions: 0.5 h; dosed: Fluorotelomer alcohol 8+2; 80 mg/kg; oral; Female; Harlan Sprague Dawley
Rat [31] = conditions: 12 h; dosed: Fluorotelomer alcohol 8+2; 80 mg/kg; oral; Female; Harlan Sprague Dawley
Rat [32] = conditions: dosed: Fluorotelomer alcohol 8+2, 48 mg/kg, oral, Male, Harlan Sprague Dawley
Rat [33] = conditions: dosed: Fluorotelomer alcohol 8+2, 24 mg/kg, oral, Male, Harlan Sprague Dawley; remark: listed apart in the source
Rat [34] = conditions: dosed: Fluorotelomer alcohol 8+2, 24 mg/kg, oral, Male, Harlan Sprague Dawley; remark: listed apart in the source
Rat [35] = conditions: dosed: Fluorotelomer alcohol 8+2, 80 mg/kg, oral, Female, Harlan Sprague Dawley

C/C=C/c1ccc(O)c(OC)c1 [Isoeugenol]
Conditions	concentration in plasma [ng/mL]
Rat [1], 1 h	495
Rat [1], 4 h	784
Rat [2], 5 min	1160
Rat [2], 10 h	157
Rat [3], 0.75 h	517
Rat [3], 6 h	19
Rat [4], 0.5 h	1100
Rat [4], 10 h	143
Rat [5], 0.75 h	321
Rat [5], 2.5 h	73.8
Rat [6], 2 min	224
Rat [6], 8 h	254
Rat [7], 1.5 h	219
Rat [7], 10 min	2080
Rat [8], 2 h	327
Rat [8], 20 min	1590
Rat [9], 3 h	750
Rat [9], 5 min	1400
Rat [10], 0.75 h	283
Rat [10], 2 h	179
Rat [11], 6 h	785
Rat [11], 20 min	1980
Rat [12], 2 h	309
Rat [12], 2 min	3410
Rat [13], 2 min	10400
Rat [13], 4 h	16
Rat [14], 0.5 h	1300
Rat [14], 5 h	733
Rat [15], 1 h	104
Rat [15], 4 h	60.5
Rat [16], 2 h	395
Rat [16], 5 min	7620

O=S(=O)([O-])C(F)(F)C(F)(F)C(F)(F)C(F)(F)C(F)(F)C(F)(F)F.[K+] [Perfluorohexane-1-sulphonic acid – potassium salt]
Conditions	concentration in plasma [ng/mL]
Rat [17]	94600
Rat [19]	11100
Rat [23]	6010

Conditions	concentration in plasma [ng/mL]
Rat [18], 3 h	28000
Rat [18], 96 h	4120
Rat [20], 6 h	30500
Rat [20], 192 h	506
Rat [21], 0.5 h	51400
Rat [21], 24 h	16400
Rat [22], 0.25 h	39800
Rat [22], 288 h	1950

O=C(O)CCC(F)(F)C(F)(F)C(F)(F)C(F)(F)C(F)(F)C(F)(F)C(F)(F)F [Fluorotelomer acid 7+3]
Conditions	concentration in plasma [ng/mL]
Rat [24]	4830
Rat [25]	4450
Rat [26]	1550
Rat [28]	4380
Rat [30]	565
Rat [31]	1530

Conditions	concentration in plasma [ng/mL]
Rat [27], 0.25 h	32.6
Rat [27], 24 h	425
Rat [29], 48 h	2260
Rat [29], 192 h	86.5
Rat [32], 0.75 h	83.7
Rat [32], 12 h	297
Rat [33], 0.75 h	261
Rat [33], 48 h	304
Rat [34], 0.75 h	373
Rat [34], 48 h	305
Rat [35], 0.25 h	75
Rat [35], 24 h	1540
